The text below walks through data of PubChem BioAssay (NCI).

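Briefly, cells in 96-well plates were exposed to five compound concentrations for 48 h, and endpoints were estimated by linear interpolation. Here, GI50 denotes the concentration required for 50% inhibition of growth. TGI denotes the concentration required for complete inhibition of growth.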 Square brackets hold non-standard residues; d marks the D form. Peptide text beside a SMILES is read from it. 2Nal = N[CH](Cc1ccc2ccccc2c1)C(=O)O A value given as a limit tells only on which side of the number the result lay.

This assay concerns NCI-H322M lung. Nature of the assay: DTP human tumour cell line panel, 48 h.
Turning to `CC(C)C(NC(=O)C(CCCCN)NC(=O)C(Cc1c[nH]c2ccccc12)NC(=O)C(Cc1ccc(O)cc1)NC(=O)C(CS)NC(=O)C(N)Cc1ccc2ccccc2c1)C(=O)NC(CS)C(=O)NC(C(N)=O)C(C)O` (stereo not given) (H-[2Nal]CYWKVCT-NH2; configuration not given here), the GI50 is greater than 100 µM and the TGI is greater than 100 µM.

For the molecule `C=C1NC(=O)C(CC(C(=O)C(=O)Nc2c(C)cccc2C(C)(C)C)C(=O)c2ccc3ccccc3c2)C(=O)N1` (stereo not given), the TGI was greater than 100 µM.

The molecule `O=[N+]([O-])c1sc2ccc(Cl)cc2c1Nc1ccc(Cl)cc1` registered a total growth inhibition concentration (TGI) greater than 100 µM.

`COc1cc(-c2ccc(NC(=O)NC3CC3)c(OC)c2)ccc1NC(=O)NC1CC1`: the GI50 was 15.5 µM and the total growth inhibition concentration (TGI) was greater than 100 µM.

`COc1cccc2cc(C(=O)Nc3ccccn3)c(=N)oc12`: the TGI is greater than 100 µM.

Turning to `CCOC(=O)c1cc(-c2ccc(OC)c(OC)c2)[nH]c1N/N=C/c1c(Cl)cccc1Cl`, the GI50 is 4.6 µM and the total growth inhibition concentration (TGI) amounted to 25.8 µM.

As for `N#Cc1cc(NC(=O)c2ccccc2)c(=O)n2c1[nH]c1ccccc12`, the TGI was greater than 100 µM.

`O=C(O)c1nccnc1C(=O)O` returned a TGI greater than 100 µM.

Molecule `COc1ccc(-c2nc(-c3cnccn3)n(COCCO)n2)cc1` came in with a concentration for total growth inhibition (TGI) greater than 100 µM.

`CCCCCCCCCc1c(O)c(O)c(CCCCCCCCC)c(CCCCCCCCC)c1CCCCCCCCC` had a concentration for total growth inhibition (TGI) greater than 100 µM.

Consider `O=C(O)CCC(NC(=O)c1ccc(CNc2nc3ccccc3nc2C(=O)O)cc1)C(=O)O` (stereo not given), for which the TGI was greater than 100 µM.

`COC(=O)C1C(C(=O)OC)C1(Br)CBr` (stereo not given) showed a TGI greater than 100 µM.

`NNC(=S)Nc1cccc(Cl)c1` gave a total growth inhibition concentration (TGI) greater than 100 µM.

In the case of `CN(O)C(=S)c1ccccc1`, the TGI is greater than 100 µM.

Regarding `COC(=O)C1=C(C(=O)OC)C2OC1c1cc3ccccc3cc12`, the TGI worked out at 37.3 µM.

In the case of `COC(=O)C(=O)C(C(=O)C(=O)Nc1ccc(C)cc1)c1nc2ccc(C(=O)c3ccccc3)cc2[nH]c1=O` (stereo not given), the TGI is greater than 100 µM.

On to `CC(Oc1ccccc1Cl)C(=O)NN1C(=O)CSC1c1ccc(Cl)cc1` (stereo not given), for which the TGI came out at 42.2 µM.

As for `COc1ccc(CNc2cnc3cc(N)cc(N)c3n2)cc1`, the GI50 is 48.8 µM and the total growth inhibition concentration (TGI) was greater than 100 µM.

In turn, `CC1CC(C)C2=NOS3=C2C1=NO3` (stereo not given) came in with a concentration for total growth inhibition (TGI) greater than 100 µM.

`COCCOCCOCCOc1ccc(C(C#N)N(CCc2ccccc2)C(=O)c2cc(C(=O)N(CCc3ccccc3)C(C#N)c3ccc(OCCOCCOCCOC)cc3)cc(C(=O)N(CCc3ccccc3)C(C#N)c3ccc(OCCOCCOCCOC)cc3)c2)cc1` (stereo not given): the concentration for total growth inhibition (TGI) was greater than 100 µM.

Regarding `Nc1c(N2CCCCC2)c(=O)nc2[nH]/c(=C\c3ccccc3)c(=O)n12`, the TGI was greater than 100 µM.

Regarding `Cn1c(=O)oc2cc(Br)ccc21`, the TGI is greater than 100 µM.

Take `N#CCCN(CCC#N)c1ccc(C(N=Nc2ccc(Cl)cc2)=Nc2ccc(F)cc2)cc1`: the TGI is greater than 100 µM.

In the case of `O=S(=O)(Nc1ccc2ccccc2c1)c1ccc(-c2cnc(C3CC3)o2)cc1`, the GI50 was 5.81 µM and the TGI is greater than 100 µM.

The molecule `Cc1ccc(-c2cc(-c3c(C)nn(C)c(=O)c3N)[nH]n2)cc1` displayed a TGI greater than 100 µM.

`Cc1cc(C)n(C(=O)CSc2nnc(SCC(=O)n3nc(C)cc3C)s2)n1` displayed a concentration for total growth inhibition (TGI) greater than 100 µM.

`CC1=NN(C(=O)c2ccc(Cl)cc2)C(=O)/C1=C/c1ccco1` gave a TGI greater than 100 µM.

`CC(O)CN1c2ccccc2Sc2ccc(Cl)cc21` (stereo not given): the TGI was greater than 10 µM.

On to `COc1cc2c(cc1OC)c1c(OC)c(OC)cc3c1c1c2sc(=S)n1CC3`, for which the TGI is greater than 100 µM.

Turning to `CCOc1c(C#N)c2c(N)ncnc2n1C1OC(CO)C(O)C1O` (stereo not given), the GI50 was 3.95 µM and the TGI was greater than 59.5 µM.

Regarding `CN1C(=O)C23CCCCC2CC1(c1ccccc1)S3` (stereo not given), the concentration for total growth inhibition (TGI) was greater than 100 µM.

Regarding `O=C(N/N=C(/COc1cccc(Cl)c1)N=Cc1cccnc1)c1ccncc1`, the TGI is greater than 100 µM.

On to `Cc1ccc(/C=C(\C#N)c2ccccc2)cc1`, for which the TGI is greater than 100 µM.

In the case of `CSc1ccc(C2=NN(C(C)=O)C(c3ccc(F)cc3)C2)cc1` (stereo not given), the GI50 was 15.9 µM and the total growth inhibition concentration (TGI) worked out at 36 µM.

As to `CC(NC(NC(C)C12CC3CC(CC(C3)C1)C2)=C(C(Cl)=C(Cl)Cl)[N+](=O)[O-])C12CC3CC(CC(C3)C1)C2` (stereo not given), the TGI was greater than 100 µM.

In the case of `C=C1CC(CN2CCC(=O)NC2=O)(c2ccccc2)OC1=O` (stereo not given), the TGI worked out at 30 µM. This lies in the double-digit micromolar range.

Turning to `Cc1nnc(-c2ccc(C)c(-c3ccc(C(=O)NCc4ccc(Cl)cc4)cc3)c2)o1`, the GI50 was greater than 25 µM and the concentration for total growth inhibition (TGI) is greater than 25 µM.

For the molecule `O=[N+]([O-])c1nccn1CCCNCCCn1ccnc1[N+](=O)[O-]`, the TGI is greater than 100 µM.

As to `CCOC(=O)C1SC(=Nc2ccc(Cl)cc2C)N=C1C` (stereo not given), the TGI was determined as 70.4 µM.

For `OC(c1ccccc1)C(F)(F)c1nc2ccccc2o1` (stereo not given), the TGI is greater than 100 µM.

Turning to `Cc1cn2c(/C=C3/C(=O)Nc4ccc(F)cc43)c(C)nc2s1`, the GI50 is 34.8 µM and the total growth inhibition concentration (TGI) was greater than 50 µM.

As to `CCOC(=O)c1[nH]c2nc(SC)nc(Nc3ccccc3Cl)c2c1N`, the total growth inhibition concentration (TGI) was 76.5 µM. This counts as double-digit micromolar.

In turn, `CCC(=O)NCCc1c2c3c(ccnc3c3ncsc13)-c1ccccc1N2` displayed a total growth inhibition concentration (TGI) greater than 100 µM.

The molecule `O=C1/C(=C/c2cccs2)NC(=S)N1CN1CCCC(CO)C1` (stereo not given) showed a TGI greater than 100 µM.

As for `Cc1c2c(ccc3ccccc32)c[n+]2ccccc12`, the total growth inhibition concentration (TGI) stood at 38.8 µM.

With `COc1ncnc2c1cnn2Cc1cn(CCCCO)nn1`, the TGI is greater than 100 µM.
